Measured values as given in paper PMC4336329 (PLoS ONE, 2015).
About 2,200 (0.71%) of roughly 310,000 compounds showed an effect of 50% or more. Effects have a minus sign here. The list shows a part of the results.

Molecular target: human ether-à-go-go-related gene (hERG) potassium channel (human, UniProt Q12809)
Assay: primary screen, population patch clamp on CHO cells stably expressing hERG

Chain of human ether-à-go-go-related gene (hERG) potassium channel (Q12809 whole entry, looked up): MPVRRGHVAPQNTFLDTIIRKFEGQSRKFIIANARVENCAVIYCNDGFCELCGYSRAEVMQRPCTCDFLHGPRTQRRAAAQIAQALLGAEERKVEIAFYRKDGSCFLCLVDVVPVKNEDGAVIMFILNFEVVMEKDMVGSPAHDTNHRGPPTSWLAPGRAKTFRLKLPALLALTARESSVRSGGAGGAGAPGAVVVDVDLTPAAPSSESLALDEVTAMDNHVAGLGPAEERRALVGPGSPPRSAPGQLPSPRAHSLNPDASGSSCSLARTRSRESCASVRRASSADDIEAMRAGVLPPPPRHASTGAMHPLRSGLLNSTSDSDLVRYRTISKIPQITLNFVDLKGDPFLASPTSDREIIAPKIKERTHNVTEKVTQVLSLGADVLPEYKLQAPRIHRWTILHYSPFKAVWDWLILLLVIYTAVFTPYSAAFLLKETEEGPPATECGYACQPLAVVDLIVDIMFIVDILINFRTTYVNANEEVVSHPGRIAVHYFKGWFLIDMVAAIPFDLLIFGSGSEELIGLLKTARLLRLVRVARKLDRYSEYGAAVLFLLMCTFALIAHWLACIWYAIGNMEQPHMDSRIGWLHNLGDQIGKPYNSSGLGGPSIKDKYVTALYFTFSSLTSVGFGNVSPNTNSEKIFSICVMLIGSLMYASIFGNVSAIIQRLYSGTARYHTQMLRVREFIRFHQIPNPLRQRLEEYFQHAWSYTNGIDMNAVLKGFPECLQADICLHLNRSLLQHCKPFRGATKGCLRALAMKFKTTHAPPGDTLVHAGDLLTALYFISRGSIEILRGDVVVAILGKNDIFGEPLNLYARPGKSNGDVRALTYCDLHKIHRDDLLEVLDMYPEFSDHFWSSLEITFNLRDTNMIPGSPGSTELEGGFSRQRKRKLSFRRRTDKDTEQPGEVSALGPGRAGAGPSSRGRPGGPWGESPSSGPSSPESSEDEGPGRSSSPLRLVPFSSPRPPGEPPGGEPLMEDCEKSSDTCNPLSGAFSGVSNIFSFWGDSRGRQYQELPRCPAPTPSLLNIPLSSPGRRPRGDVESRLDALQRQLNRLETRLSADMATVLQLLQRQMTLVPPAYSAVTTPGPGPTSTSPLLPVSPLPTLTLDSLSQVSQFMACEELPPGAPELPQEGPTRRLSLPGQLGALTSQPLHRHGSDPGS

SMILES	hERG current change (%, negative = inhibition) at 1uM [%]
NCCc1nnc(SCC(=O)Nc2cccc(Cl)c2)o1	20.6
CCC/C=C1/CCCOC(C(=O)NCCN2CCOCC2)(C(F)(F)F)C1 (stereo not shown)	13.2
CCCN(CC1CC1)C(=O)COC(=O)c1ccc(CNS(=O)(=O)c2ccc(F)c(Cl)c2)cc1	5.17
COc1ccc(S(=O)(=O)N2CCC(C(=O)Nc3ccc(OC)c(OC)c3)CC2)cc1C	11.8
c1ccc2c(c1)CCCN2Cc1nnc2n1CCCCC2	12.5
CCC(=O)Nc1ccc(C(=O)CSc2nnc(-c3ccc(NS(=O)(=O)CC)cc3)o2)cc1OC	10.1
CCCS(=O)(=O)N1CCC(C(=O)NCCCN(CC)c2cccc(C)c2)CC1	-0.428
NCCCC(=O)O	12
CC1(C(=O)OCC(=O)Nc2ccc3ccccc3c2)CC1(Cl)Cl.CN(C)C=O (stereo not shown)	11.2
CC1CCN(C(=O)COC(=O)c2n[nH]c3ccccc23)CC1	6.97
CCN(c1ccccc1)S(=O)(=O)c1ccc(C(=O)Nc2ccncc2)cc1	-0.477
Cc1cccc(NC(=O)CSCC(=O)N(C)Cc2c(F)cccc2Cl)c1	-0.777
CCn1c(NCc2c[nH]c3ccccc23)nc2ccccc21	7.83
O=C(CSCc1cc(=O)n2ccsc2n1)Nc1ccc(F)cc1	10.1
Cc1ccc(Cn2c(SC(C)C(N)=O)nc3ccccc3c2=O)cc1 (stereo not shown)	11.3
COc1cc2c(c(OCC(=O)NC(C)C)c1)C(=O)O[C@@H](C)CCCC(=O)CCCCC2	7.84
COCc1ccc(CN2CCC(n3nccc3NC(=O)C(OC)c3ccccc3)CC2)o1 (stereo not shown)	3.15
COc1ccccc1OCC(=O)O	13.3
NC(=O)CCN1CCC(c2nc3ccccc3s2)CC1	-16.1
Clc1ccc2c(c1)-c1nnc(Br)n1-c1ccccc1S2	0.703
CC1Cc2cc(/C(O)=C3/C(=O)C(=O)N(CCCn4ccnc4)C3c3cccc([N+](=O)[O-])c3)ccc2O1 (stereo not shown)	15.1
Cc1nn(C)c(C(=O)NNC(=S)NCc2ccco2)c1Br	21

SMILES	hERG current change (%, negative = inhibition) at 1uM [%]
Cc1ccc(S(=O)(=O)NCCC(=O)NCC(c2ccc(F)cc2)N2CCOCC2)cc1 (stereo not shown)	5.76
Cc1ccc(SCC(=O)OC(C)C(=O)NCc2ccccc2)cc1C (stereo not shown)	-0.37
Cc1ccc(NC(=O)CN(C)c2ccc(S(=O)(=O)N3CCN(C)CC3)cn2)cc1	1.76
CC(=O)c1cccc(NC(=O)c2noc3c2CCc2ccccc2-3)c1	8.25
O=C(CN1C(=O)NC2(CCCCCC2)C1=O)N1CCC(Cc2ccccc2)CC1	2.62
CC(C)(C)C1CCc2nc(NC(=O)Cc3cn4ccsc4n3)sc2C1 (stereo not shown)	-4.91
CCn1c(C)nc2cc(C(=O)NNC(=O)c3ccc(C)cc3)ccc21	6.07
Cc1nc2ccc(-c3nc4ccccc4o3)cc2[nH]1	-0.0617
CC1CCCC(NC(=O)CN2C(=O)COc3ccccc32)C1C (stereo not shown)	19.4
COc1cccc(C(=O)N/N=C(\CC(C)C)c2ccccc2)c1	4.05
Cc1nn(-c2ccccc2)c(Cl)c1/C=C1\SC(=S)N(C)C1=O	21.4
CC(C)(C)c1ccc(C(=O)NNC(=O)Cc2cccc3ccccc23)cc1	11.8
O=C(CN1C(=O)NC2(CCCC2)C1=O)OCc1ccc(Cl)c(Cl)c1	1.91
O=C(CCSCCc1ccccn1)Nc1ccc(Br)cc1F	5.3
O=C(NC1CCCC1)C1CCN(C(=O)c2ccc(-c3ccccc3)cc2)CC1	-3.8
COc1ccccc1N1CCN(C(=O)c2cc3n(n2)C(C(F)(F)F)CC(c2ccco2)N3)CC1 (stereo not shown)	7.96
O=C1C2CCCCN2C(=O)N1CCCCN1CCN(c2cccc(Cl)c2)CC1 (stereo not shown)	-27.8
COc1ccc2[nH]c(C(=O)N/N=C/c3ccc(O)cc3O)cc2c1	15.5
Clc1ccc(Nc2ncnc3c2cnn3-c2ccccc2)cc1	0.0786
CC12CCC(=O)N1C(C(=O)Nc1nc3ccc(F)cc3s1)CS2 (stereo not shown)	-5.23
CC(Sc1nc2ccccc2n1C)C(=O)Nc1ccc(N2CCOCC2)cc1 (stereo not shown)	6.2
Cc1ccccc1/C=C/C12NC(=O)CN1c1ccccc1C2(C)C (stereo not shown)	11.9

SMILES	hERG current change (%, negative = inhibition) at 1uM [%]
O=C(N/N=C\c1ccc(Cl)cc1)C1=NOC2COC3(CCN(c4ccc([N+](=O)[O-])cc4)CC3)OCC12 (stereo not shown)	4.03
CCCn1c(N)c(N(CCOC)C(=O)c2cc(C)cc(C)c2)c(=O)[nH]c1=O	10.1
COc1ccc(-c2nnc(SCC(=O)NNC(=O)c3ccc(C)cc3)o2)cc1	-5.49
COc1ccc(OCCCC(=O)Nc2cc(S(=O)(=O)N3CCCCC3)ccc2C)cc1	3.93
NC(=O)CSc1nc2ccccc2nc1SCC(N)=O	8.87
Cc1ccc(OCCC(=O)Nc2ccc3c(c2)OCCCO3)cc1	6
Cc1ccc(S(=O)(=O)N(C)C)cc1NC(=O)COC(=O)/C(=C/c1ccc(F)cc1)c1cccs1	13.6
COc1ccccc1NC(=S)NC(C)=O	14.4
CC(C)C1CC(CCNCc2ccc3c(c2)OCO3)(c2ccccc2)CCO1.Cl (stereo not shown)	-14.5
COc1ccccc1N1CCN(C(=O)COc2ccc(S(=O)(=O)NC(C)C)cc2)CC1	16.6
COc1ccc(NC(=O)c2oc3ccccc3c2C)c(OC)c1	4.15
COC(=O)Cn1c(CCS(=O)(=O)c2ccc(C)cc2)nc2ccccc21	2.48
O=C(N/N=C\c1ccc(Cl)cc1)c1sccc1-n1cccc1	-1.36
COc1ccc(O)c(-c2c(-c3ccc(Cl)cc3)n[nH]c2C)c1	9.84
COc1ccccc1NC(=O)COc1ccc(CO)cc1Cl	6.36
CSc1ccccc1OCc1cc(C(=O)NCCC2CCCCO2)no1 (stereo not shown)	7.41
CS(=O)(=O)c1nc(-c2ccc(Br)cc2)n[nH]1	17.9
CCCCn1c(N)c(N(CCC(C)C)C(=O)CSc2nnc3ccccn23)c(=O)[nH]c1=O	12.7
COc1cc(Cl)ccc1OCc1cc(C(=O)N(C)Cc2cccc3cnccc23)no1	3.83
O=C(Cn1nnc2ccccc21)OCC(=O)c1ccc(Cl)cc1	2.82
Cn1sc(NC(=O)c2ccc(Cl)cc2)nc1=O	3.83
O=C(NCCc1ccccc1)c1cc(-c2ccncc2)nc2ccc(S(=O)(=O)N3CCOCC3)cc12	11.9

SMILES	hERG current change (%, negative = inhibition) at 1uM [%]
CCCCNC(=O)COC(=O)c1c2c(nc3ccccc13)CCC2	13.1
Cc1onc(-c2c(F)cccc2Cl)c1C(=O)N=C(N)N1CCCC1	10.2
Cc1c(Cl)cccc1NC(=S)N1CCN(c2ccc([N+](=O)[O-])cn2)CC1	15.7
COC(=O)c1cc(CNC(=O)c2sccc2-c2ccccc2)ccc1OC	6.21
COc1cccc2c(=O)n(CC(=O)N3CCc4ccccc43)ccc12	0.712
COCCNc1c2c(nc3c(-c4ccccc4)c(C)nn13)CCCC2	5.77
COc1ccc(CN2CCNC(=O)C2CC(=O)NCc2csc(C)n2)c(F)c1 (stereo not shown)	15.3
CC1CN(C2CCN(S(=O)(=O)c3ccc4ccccc4c3)CC2)CC(C)O1 (stereo not shown)	18.6
O=C(CSc1nncn1-c1cccnc1)N1CCOCC1	10.6
CCN(CC)CCOC(=O)c1ccc(N/C=C(/C#N)c2nc(-c3cc4ccccc4oc3=O)cs2)cc1	5.18
Cc1ccc(S(=O)(=O)/N=C(\N)Nc2nc(C)c3ccccc3n2)cc1	4.57
CS(=O)(=O)c1ccccc1C(=O)Nc1cccc(-c2nc3ccccc3o2)c1	12.9
C#CCSc1nccc(-c2nn(-c3ccc(C)cc3)ccc2=O)n1	9.13
CC1CCC(NC(=O)CN(C)S(=O)(=O)c2ccc3c(c2)CCC(=O)N3)CC1 (stereo not shown)	13.1
Cc1ccc(C)c(NS(=O)(=O)c2ccc(-c3coc(C)n3)cc2)c1	12.1
COc1cc(/C=C2/OC(=O)c3cc([N+](=O)[O-])ccc32)cc(OC)c1OC	14.2
O=C(Nc1cccc(-c2cn3ccccc3n2)c1)c1ccccc1	0.927
COc1ccccc1NC(=O)N1CCCC1C(=O)NCc1ccc2c(c1)OCO2 (stereo not shown)	11.9
COc1nc(N(C#N)CC(N)=O)nc(N2CCCC2)n1	11
CCOC(=O)c1c(-c2cccc3ccccc23)csc1NC(=O)C1C2CCC(O2)C1C(=O)O (stereo not shown)	7.1
CN(C)c1ccc(/C=N/NC(=O)c2ccc3nc[nH]c3c2)cc1	2.85
Cc1cnc(C(=O)N2CCCC(N3CCN(c4cccc(C(F)(F)F)c4)CC3)C2)cn1 (stereo not shown)	0.878
